By IC50 is meant the dose at which the fit gives 50% viability; where the fit passes the top or lowest dose, that dose stands as a limit. AUC sums up the same curve from the lowest dose to the 256-fold higher top dose; the more sensitive the line, the further below 1. The top dose, if marked as inferred, is not printed in the source and was worked back from the curve model.

Compound in the assay: CC1=C(C(=O)Nc2cc3cn[nH]c3cc2F)C(c2ccc(C(F)(F)F)cc2)CC(=O)N1 [GSK429286A]
Nature of the assay: Viability of human cancer cell lines after 72 h of drug (GDSC screen). Particulars: top dose inferred. Here is the method: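 Human cancer cell lines in 384-well plates, medium with 10% serum, drug for 72 h over a 256-fold dose range (nine 2-fold or five 4-fold steps up to the top dose). Adherent lines were fixed and stained with the nucleic acid dye Syto60, suspension lines read with resazurin; signal relative to control wells, capped at 0 and 100%. One two-parameter sigmoid per drug and line, fitted in a mixed model over all curves with the slope shared within a line.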
As a reminder, the IC50 is the midpoint of a concentration-inhibition curve. With GB-1 (glioma, adherent, top dose 20 µM), the AUC worked out at 0.967 and the IC50 was more than 20 µM.
For “GCIY (stomach, adherent, top dose 20 µM)”, in that order: 0.984 and more than 20 µM.
In the case of “GCT (soft tissue, adherent, top dose 20 µM)”, the AUC worked out at 0.982 and the IC50 was more than 20 µM.
On to “GDM-1 (acute myeloid leukaemia, suspension, top dose 20 µM)”, for which the AUC worked out at 0.385 and the IC50 stood at 0.614 µM.
The corresponding values for GI-1 (glioma, adherent, top dose 20 µM) are 0.815 and 10.4 µM.
For “GI-ME-N (neuroblastoma, adherent, top dose 20 µM)”, in that order: 0.705 and 5.91 µM.
For “GMS-10 (glioma, adherent, top dose 20 µM)”, in that order: 0.984 and more than 20 µM.
“GOTO (neuroblastoma, adherent, top dose 20 µM)”: the AUC amounted to 0.967 and the IC50 is more than 20 µM.
For “GP5d (large intestine, adherent, top dose 20 µM)”, in that order: 0.991 and more than 20 µM.
The corresponding values for “GR-ST (lymphoblastic leukaemia, suspension, top dose 20 µM)” are 0.947 and more than 20 µM.
For “GRANTA-519 (B-cell lymphoma, suspension, top dose 20 µM)”, in that order: 0.969 and more than 20 µM.
On to “GT3TKB (stomach, adherent, top dose 20 µM)”, for which the AUC stood at 0.985 and the IC50 is more than 20 µM.
Take H4 (glioma, adherent, top dose 20 µM): the AUC amounted to 0.973 and the IC50 is more than 20 µM.
For “H9 (lymphoid neoplasm, suspension, top dose 20 µM)”, in that order: 0.988 and more than 20 µM.
The corresponding values for “H290 (mesothelioma, adherent, top dose 20 µM)” are 0.989 and more than 20 µM.
The corresponding values for “H513 (mesothelioma, semi-adherent, top dose 20 µM)” are 0.974 and more than 20 µM.
Turning to “H2369 (mesothelioma, adherent, top dose 20 µM)”, the AUC came out at 0.981 and the IC50 is more than 20 µM.
For “H2373 (mesothelioma, adherent, top dose 20 µM)”, in that order: 0.966 and more than 20 µM.
With “H2461 (mesothelioma, adherent, top dose 20 µM)”, the AUC worked out at 0.965 and the IC50 was more than 20 µM.
For “H2591 (mesothelioma, adherent, top dose 20 µM)”, in that order: 0.943 and more than 20 µM.
Regarding “H2595 (mesothelioma, adherent, top dose 20 µM)”, the AUC worked out at 0.96 and the IC50 was more than 20 µM.
For “H2722 (mesothelioma, adherent, top dose 20 µM)”, in that order: 0.896 and more than 20 µM.
The corresponding values for “H2731 (mesothelioma, adherent, top dose 20 µM)” are 0.956 and more than 20 µM.
The corresponding values for “H2795 (mesothelioma, adherent, top dose 20 µM)” are 0.95 and more than 20 µM.
Turning to “H2803 (mesothelioma, adherent, top dose 20 µM)”, the AUC was determined as 0.974 and the IC50 was more than 20 µM.
For “H2804 (mesothelioma, adherent, top dose 20 µM)”, in that order: 0.965 and more than 20 µM.
The corresponding values for “H2818 (mesothelioma, adherent, top dose 20 µM)” are 0.974 and more than 20 µM.
“H2869 (mesothelioma, adherent, top dose 20 µM)”: the AUC turned out to be 0.818 and the IC50 is 14.8 µM.
On to “H3118 (head and neck, adherent, top dose 20 µM)”, for which the AUC was 0.956 and the IC50 is more than 20 µM.
For the cell line “H3255 (lung adenocarcinoma, adherent, top dose 20 µM)”, the AUC was found to be 0.982 and the IC50 is more than 20 µM.
For “H-EMC-SS (chondrosarcoma, adherent, top dose 20 µM)”, in that order: 0.942 and more than 20 µM.
With “HA7-RCC (kidney, adherent, top dose 20 µM)”, the AUC was 0.976 and the IC50 is more than 20 µM.
The corresponding values for “HAL-01 (lymphoblastic leukaemia, suspension, top dose 20 µM)” are 0.956 and more than 20 µM.
For “HARA (lung squamous cell carcinoma, adherent, top dose 20 µM)”, in that order: 0.871 and more than 20 µM.
For “HC-1 (hairy cell leukaemia, suspension, top dose 20 µM)”, in that order: 0.972 and more than 20 µM.
As to “HCC38 (breast, adherent, top dose 20 µM)”, the AUC is 0.958 and the IC50 was more than 20 µM.
As to “HCC202 (breast, adherent, top dose 20 µM)”, the AUC came to 0.874 and the IC50 is more than 20 µM.
For “HCC1143 (breast, adherent, top dose 20 µM)”, in that order: 0.979 and more than 20 µM.
The corresponding values for “HCC1187 (breast, suspension, top dose 20 µM)” are 0.921 and more than 20 µM.
Turning to “HCC1395 (breast, adherent, top dose 20 µM)”, the AUC turned out to be 0.974 and the IC50 was more than 20 µM.
For “HCC1419 (breast, adherent, top dose 20 µM)”, in that order: 0.967 and more than 20 µM.
For “HCC1428 (breast, adherent, top dose 20 µM)”, in that order: 0.985 and more than 20 µM.
As to “HCC1500 (breast, adherent, top dose 10.24 µM)”, the AUC was 0.988 and the 50% inhibitory concentration (IC50) was more than 10.2 µM.
In the case of “HCC1569 (breast, adherent, top dose 20 µM)”, the AUC is 0.954 and the IC50 is more than 20 µM.
The corresponding values for “HCC1599 (breast, suspension, top dose 20 µM)” are 0.958 and more than 20 µM.
As to “HCC1806 (breast, adherent, top dose 20 µM)”, the AUC came to 0.988 and the IC50 is more than 20 µM.
As for “HCC1937 (breast, adherent, top dose 20 µM)”, the AUC came to 0.985 and the IC50 is more than 20 µM.
For “HCC1954 (breast, adherent, top dose 20 µM)”, in that order: 0.985 and more than 20 µM.
In the case of “HCC2157 (breast, suspension, top dose 20 µM)”, the AUC came to 0.975 and the IC50 is more than 20 µM.
Take “HCC2218 (breast, suspension, top dose 20 µM)”: the AUC is 0.968 and the IC50 is more than 20 µM.
The corresponding values for “HCC2998 (large intestine, adherent, top dose 20 µM)” are 0.981 and more than 20 µM.
